How the values were obtained:
[1] = target: T1, human CD40 on cells (HEK293 transfected with human CD40); Ramos-Blue B-lymphocytes; human B cells; human … (human, UniProt P25942 21-277); experiment: cell-based or functional assay
[2] = target: T1, human CD40 on cells (HEK293 transfected …); experiment: cell-based or functional assay; remark: listed apart in the source

Sequence of UniProt P25942 (P25942 21-277 limits assumed): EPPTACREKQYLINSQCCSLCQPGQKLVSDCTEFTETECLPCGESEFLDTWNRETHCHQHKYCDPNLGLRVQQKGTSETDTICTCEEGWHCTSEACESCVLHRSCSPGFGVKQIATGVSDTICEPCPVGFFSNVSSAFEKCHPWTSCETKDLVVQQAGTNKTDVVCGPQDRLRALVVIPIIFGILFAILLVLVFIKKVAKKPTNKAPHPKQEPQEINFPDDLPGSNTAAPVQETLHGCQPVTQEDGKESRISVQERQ

B1: scCD40L-IgG4P-FP7 (Fc fusion)
chain: NPQIAAHVISEASSKTTSVLQWAEKGYYTMSNNLVTLENGKQLTVKRQGLYYIYAQVTFCSNREASSQAPFIASLWLKSPGRFERILLRAANTHSSAKPCGQQSIHLGGVFELQPGASVFVNVTDPSQVSHGTGFTSFGLLKLGGGGSGGGGSGGGGSQIAAHVISEASSKTTSVLQWAEKGYYTMSNNLVTLENGKQLTVKRQGLYYIYAQVTFCSNREASSQAPFIASLWLKSPGRFERILLRAANTHSSAKPCGQQSIHLGGVFELQPGASVFVNVTDPSQVSHGTGFTSFGLLKLGGGGSGGGGSGGGGSQIAAHVISEASSKTTSVLQWAEKGYYTMSNNLVTLENGKQLTVKRQGLYYIYAQVTFCSNREASSQAPFIASLWLKSPGRFERILLRAANTHSSAKPCGQQSIHLGGVFELQPGASVFVNVTDPSQVSHGTGFTSFGLLKLGGGGSGGGGSGGGGS[human IgG4 Fc with S228P (EU numbers) not given here]
- EC50 (nM), NFkB-luciferase reporter, HuCD40 293 HEK NFkB c3 cells [1]: 0.438 nM
- EC50 (nM), NFkB/AP-1 reporter, Ramos-Blue B-cells [2]: 0.107 nM

Reference: patent US20210260159A1 (published 2021)
